Laboratory results published in the supplement of paper PMC11417369.
Some of the results follow.

What follows are sequences tested on PfAP2-HC AP2 domain (GST-tagged) (assay: gcPBM binding intensity (ln(normalized median fluorescence intensity)); higher = stronger DNA binding).
How it was run: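 Alexa488 anti-GST antibody, scanned at 488 nm, detected GST-tagged P. falciparum DNA-binding domains that had been expressed in E. coli and incubated for 1 h on an Agilent 4 × 180k array. The array carried primer-extended double-stranded 36-bp intergenic genomic probes and negative controls. Binding intensity is the highest Masliner-normalised natural-log median intensity across replicate spots of either orientation of each probe.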

| Sequence | gcPBM binding intensity (ln) |
| --- | --- |
| CAATTAAAAAATAATACATGCATATAAATAGATATT [TGCATGCA_site427] | 9.74 |
| ATAATTAAATAAAAAAGTACACATACATCATAATGC [XGTACX_site7656] | 9.94 |
| TATGAAGTGCACAATACACACTAATTCTATATAAAT [CACACA_site7269] | 9.74 |
| TAAGAATACGAAAGGTGTACACTGTGGAGACTTCAA [XGTACX_site2619] | 9.9 |
| TATATAATAACATATGCATGCAAGTAATATAACCAA [TGCATGCA_site324] | 9.84 |
| TATAATATATATGTAACACACAAAAGTTATATACTT [CACACA_site2868] | 9.73 |
| ATATATACATATATATGTACGTATATTTTTATTTCT [XGTACX_site6198] | 9.89 |
| TATAAACCCACCTACACACACAACGTAAATGCATTG [CACACA_site2238] | 10.1 |
| ATTTAACAACTTCAAACACACAATATAGATTTATAT [CACACA_site7067] | 9.79 |
| AACATACACATATACACACACACATATATACATATA [CACACA_site1093] | 10.4 |
| AAAAAAAAAAAAACATGTACATAAATGTAAAAAAGT [XGTACX_site8158] | 10.6 |
| ACATATAAAATGTATACACACAAATATTACAGAGAT [CACACA_site4920] | 10 |
| TATAATAACAATTTAGTGCATATAATAATATTTTAT | 9.43 |
| GCTTTTGAAAATATACACATGTTAGGAATACAGGGG [TGCATGCA_negctrl_site480] | 9.64 |
| ATTTTTTTTCTTTTTTTTTTACATTTTTTTCTTTTT [CACACA_negctrl_site1289] | 9.78 |
| AATTAAGTTAAACATTAAAAAAAACAAAAAATTAAA [CACACA_negctrl_site1333] | 9.55 |
| GCCATTAATTTATACACACACATTATGATTTTTTAT [CACACA_site754] | 10.2 |
| ATGCATATGTTTATTGCACACACCAAAAAGAAAACA [CACACA_site403] | 9.95 |
| TACAAACTATGATGCACACATATATATATGTATACA [CACACA_site1226] | 9.82 |

| Sequence | gcPBM binding intensity (ln) |
| --- | --- |
| AAAATGTGCCCACGCGTACACACAAAAAAAGAAAAA [CACACA_site2004] | 10 |
| AATAATTAAAATTATCTACACACCTTTATAAATATA [CACACA_site9300] | 9.71 |
| AATTTAAACAAGGATCCACACACCCCAAAAAAAAAA [CACACA_site8125] | 10.7 |
| TAAATTTAGAAACACACACACATATATATATATATA [CACACA_site847] | 10.4 |
| TTTATATTATTTTAAACATGCACAAGTATAATTTAT [TGCATGCA_site233] | 9.49 |
| TGAACAGACGAGCACACACACACATATATATATATA [CACACA_site1019] | 10.3 |
| TTTTCATATGAACAATGTACACATCGTATAATTCTG [XGTACX_site4756] | 9.68 |
| CTCATAAAAATAACGTTAACATAAATTTATTGTGAT [XGTACX_negctrl_site169] | 9.64 |
| TATATGTCAATATCTACACACATATATATAATTATT [CACACA_site3156] | 9.86 |
| AATATAAAACATATCACACATATGTATTTATGTATA [CACACA_site5763] | 9.66 |
| ATACATATTAAAGGATGTACACTTATATTTTTTAGA [XGTACX_site5406] | 9.52 |
| TGTGGGAATAACCACACACACACACGCATATAAATA [CACACA_site7634] | 10.9 |
| TTCTGTTGGAATATATGTACATAATAAAAAAAAATA [XGTACX_site1741] | 9.52 |
| TTTTTTTTTTTTGTAATACACACCACTATATGTTAT [CACACA_site1844] | 9.84 |
| AATAAATAAAAAAAAAAAAAAAAAAAAAAAAAAAAA [XGTACX_negctrl_site343] | 8.8 |
| TGTAGTCTGGAGAAAAGTACACAGTATCTGGTAACA [XGTACX_site2010] | 9.63 |
| TATGGCAAAACATTCACACATATTTATATATGTGTA [CACACA_site5588] | 9.67 |
| AGTTTTATAAAAATATGTACTTATATACACATGTAT [XGTACX_site4022] | 9.82 |
| TATTCTGGTGTAAATGCACACAGAAGAAGAAAAAAA [CACACA_site9225] | 9.75 |

| Sequence | gcPBM binding intensity (ln) |
| --- | --- |
| AAGGACACCTTCAAAACACACATACAAATAAATAGA [CACACA_site5771] | 9.82 |
| TACATACAGATATATACACACATATATAATATATAT [CACACA_site4376] | 10 |
| TACATACCTATATACACATGCATATTTACATATATT [TGCATGCA_site206] | 9.96 |
| AAAATTAAATTATAAGCACACACATATATATATATA [CACACA_site9105] | 9.86 |
| GTAAAAATACAAAAGGTGCTCAAACAATATAATACA | 9.86 |
| GAATATTAAACAAACACACACACATATATTTATATA [CACACA_site7563] | 11.1 |
| AATGGATTGATAAGTGGTACACACATATATATTATA [XGTACX_site6086] | 9.89 |
| TATATAATATATATGACACACATATTTATATAAATA [CACACA_site4054] | 9.57 |
| TTGATATGTACAGGCACACATAAATTTCACAAATAT [CACACA_site3999] | 9.8 |
| CTTTAGTTTTTAATGTGTACTGAATTTGAATAGTAG [XGTACX_site7920] | 9.4 |
| CGTATTATTTTATAAACACACAAGGGGGCATGTATA [CACACA_site6489] | 9.9 |
| ATATAATTAAAAACATGTACATATATATATATATAT [XGTACX_site2882] | 9.61 |
| CATAAATGTATATAAACATGCAAGGACAGACTTTTA [TGCATGCA_site900] | 9.75 |
| TAAGTCGTTATAAGCACACACATAAATAAAAATAAA [CACACA_site1574] | 10 |
| AAGGGTTATAAAAATTGTACTTTTTTTATTTTTTTT [XGTACX_site1313] | 9.72 |
| ATATATTTATATAGGTGTACATATTTTGCTATTCAA [XGTACX_site5199] | 9.62 |
| TCAATTTTTTAATGTTGTACTTTGTAAAAAAAAATA [XGTACX_site8481] | 9.32 |
| ATACCAAATGAATAATGTACATACGAACATACATAT [XGTACX_site1301] | 9.76 |
| GTACATTGTAAGGATGGAAAAGCTAAACATTATAAT [XGTACX_negctrl_site339] | 9.65 |
